Tested on: differentiated HL-60 cells
Test: Phagocytosis of pH-rodo-green labeled S. aureus by differentiated HL-60 cells (FACS)
Type: cell-based
Settings: co-incubation with pH-rodo-green labeled S. aureus; MABp1 negative control; FIG. 6
Method: The resulting fluorescence of the HL-60 cells was determined using fluorescence-assisted cell sorting (FACS).
An additional set of experiments was performed to test the ability of additional anti-SpA Abs to promote phagocytosis of SA by differentiated HL-60 cells.

B1: PA7.2-G3: human IgG3 anti-SpA mAb; heavy chain SEQ ID NO: 26, light chain SEQ ID NO: 31 (antibody, listed as Homo sapiens)
heavy: EVQLVESRGGLVQPGGSLRLSCAASGFTFSNYAMSWVRQAPGKGLEWVSTISGSDGGTYYADSVKGRFTISRDNSGNTVYLQMNSLREDDTAVYYCARVGLSAPVTFFDFWGQGTLVTVSSASTKGPSVFPLAPCSRSTSGGTAALGCLVKDYFPEPVTVSWNSGALTSGVHTFPAVLQSSGLYSLSSVVTVPSSSLGTQTYTCNVNHKPSNTKVDKRVELKTPLGDTTHTCPRCPEPKSCDTPPPCPRCPEPKSCDTPPPCPRCPEPKSCDTPPPCPRCPAPELLGGPSVFLFPPKPKDTLMISRTPEVTCVVVDVSHEDPEVQFKWYVDGVEVHNAKTKPREEQYNSTFRVVSVLTVLHQDWLNGKEYKCKVSNKALPAPIEKTISKTKGQPREPQVYTLPPSREEMTKNQVSLTCLVKGFYPSDIAVEWESSGQPENNYNTTPPMLDSDGSFFLYSKLTVDKSRWQQGNIFSCSVMHEALHNRFTQKSLSLSPGK
light: [… about 100 residues …]FSFGQGTDLDLKRTVAAPSVFIFPPSDEQLKSGTASVVCLLNNFYPREAKVQWKVDNALQSGNSQESVTEQDSKDSTYSLSSTLTLSKADYEKHKVYACEVTHQGLSSPVTKSFNRGEC
modifications: PA7.2-G3 Heavy Chain; PA7.2-G3 Light Chain
opsinization and phagocytosis of S. aureus by differentiated HL-60 cells: able to promote opsinization and phagocytosis

Source: patent US11773157B2, “Compositions and methods for treating and preventing Staphylococcus aureus infections” (priority 2014, dated 2023)
